Assay results as given in PubChem BioAssay AID624417 (National Center for Advancing Translational Sciences (NCATS), 2012).
Among all 410,000 compounds or so, about 6,400 (1.6%) were called active. Inconclusive means that the source gave no clear call. Such entries were picked first, then a sample of the others. The call rests on the fitted dose curve; in most records, active means well fitted inhibition curve with a large enough effect; inconclusive means small, poorly fitted or top-dose-only effect; inactive means no such curve, though single readings can be large or run the other way. No potency is given beside an inconclusive call; the fits are too rough.

biological target: Glucagon-like peptide 1 receptor (Homo sapiens) (UniProt P43220); test: qHTS of GLP-1 Receptor Inverse Agonists (Inhibition Mode); settings: HEK293 GLP-1R CRE-luciferase, luminescence, 24 h, GLP-1R form is constitutively active; series mostly up to 38.3 µM; further: nearly all actives have a fitted effect of over 55% in size
How it was run: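 Inverse agonists were sought by their lowering of basal cAMP reporter luciferase output in HEK293 cells stably carrying constitutively active human GLP-1R, after 24 h compound treatment.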
Potency means the concentration at half of the fitted maximal effect; tags describe the fitted curve by direction and shape.

UniProt P43220, sequence (P43220 whole entry, looked up): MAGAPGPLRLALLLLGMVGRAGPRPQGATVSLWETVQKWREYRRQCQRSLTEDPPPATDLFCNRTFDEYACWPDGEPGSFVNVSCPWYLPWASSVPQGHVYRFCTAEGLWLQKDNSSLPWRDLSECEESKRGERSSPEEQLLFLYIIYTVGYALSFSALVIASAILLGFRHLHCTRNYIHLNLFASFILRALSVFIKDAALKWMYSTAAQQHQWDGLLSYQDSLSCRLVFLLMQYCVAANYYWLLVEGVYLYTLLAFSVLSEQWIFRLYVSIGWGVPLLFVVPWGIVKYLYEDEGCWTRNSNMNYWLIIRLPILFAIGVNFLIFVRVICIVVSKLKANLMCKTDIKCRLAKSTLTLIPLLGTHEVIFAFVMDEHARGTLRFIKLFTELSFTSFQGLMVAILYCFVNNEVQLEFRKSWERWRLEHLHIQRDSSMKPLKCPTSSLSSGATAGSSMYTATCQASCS

Q: With `O=C(CNC(=O)c1ccco1)NCC(=O)OCc1ccccc1Cl` as the molecule, how does the Potency read?
A: inactive

Q: Which Potency does the source give for `CCOC(=O)c1c(Nc2ccc(F)cc2)nnc(-c2ccccc2)c1-c1ccccc1` here?
A: inconclusive [inhibitor, single point]

Q: Which Potency does the source give for `O=C(Nc1ccc(Cl)cn1)c1ccc(COc2ccccc2Br)o1` here?
A: inconclusive [inhibitor, single point]

Q: With `O=S(=O)(c1ccc(OCC(O)CNCc2ccco2)c(Cl)c1)N1CCOCC1` (stereo not given) as the molecule, how does the Potency read?
A: inconclusive [inhibitor, partial curve, poor fit]

Q: With `Cc1cccc(Oc2cc(NC(=O)c3ccccc3)cc([N+](=O)[O-])c2)c1` as the molecule, how does the Potency read?
A: inconclusive [inhibitor, partial curve, poor fit]

Q: For `Cc1ccnc(NC(=O)c2cccc(S(=O)(=O)N3CCN(c4ccc(F)cc4)CC3)c2)c1`, which Potency is on record?
A: inconclusive [inhibitor, partial curve]

Q: `Nc1nonc1-n1nnc(C(=O)N/N=C/c2ccc(O)cc2)c1COc1ccc(F)cc1` was tested. Which Potency did it give?
A: inconclusive [inhibitor, full curve]

Q: For `COc1ccc(CCNC(=O)c2ccc3c(c2)N(Cc2cc(C)ccc2C)C(=O)c2ccccc2S3=O)cc1OC` (stereo not given), which Potency is on record?
A: inactive

Q: Which Potency does the source give for `Cn1nc(C(F)(F)F)c(-c2ccc(F)cc2)c1NC(=O)c1ccco1` here?
A: inconclusive [inhibitor, partial curve, poor fit]

Q: Which Potency does the source give for `Cn1c(Sc2ccccc2Cl)c(C=O)c2ccccc21` here?
A: inconclusive [inhibitor, partial curve, poor fit]

Q: How did the Potency turn out when `Cc1ccc(CN2CCN(Cc3c(C)nn(-c4ccc(F)cc4)c3C)CC2CCO)o1` (stereo not given) was run?
A: inconclusive [inhibitor, partial curve, poor fit]

Q: With `CCCCOc1ccc(CNC(=O)Cc2ccc(NC(=O)N3CCCCc4ccccc43)cc2)cc1` as the molecule, how does the Potency read?
A: inconclusive [inhibitor, partial curve, poor fit]

Q: Which Potency does the source give for `COc1ccc(CNC(=O)CN(C(=O)c2csnn2)c2ccc(C(C)=O)cc2)cc1` here?
A: inactive

Q: Which Potency does the source give for `Cc1ccc(N2C(=O)N(CC(=O)Nc3ccc(F)c(F)c3)C(=O)C2C)cc1` (stereo not given) here?
A: inconclusive [inhibitor, single point]

Q: How did the Potency turn out when `CCCCCn1nc(C(=O)OCc2nnc(-c3ccccc3)o2)c2ccccc2c1=O` was run?
A: inactive

Q: Which Potency does the source give for `Cc1ccc(-c2csc(NC(=O)c3cccc(C)c3)c2C(=O)O)cc1` here?
A: inconclusive [inhibitor, partial curve, poor fit]

Q: `CCCOc1ccc(/C=C/C(=O)O)cc1OC` was tested. Which Potency did it give?
A: inconclusive [inhibitor, single point]

Q: `CCOC(=O)c1ccc(N2C(=O)c3n[nH]c(-c4ccco4)c3C2c2ccc(OCC)cc2)cc1` (stereo not given) was tested. Which Potency did it give?
A: active: 11.2 µM

Q: Which Potency does the source give for `CCN(Cc1nc2ccccc2c(=O)[nH]1)C(=O)COc1ccccc1-c1ccccc1` here?
A: active: 11.2 µM

Q: `Cc1ccc(S(=O)(=O)N2CCCc3cc(NS(=O)(=O)c4cc(F)ccc4F)ccc32)cc1` was tested. Which Potency did it give?
A: inconclusive [inhibitor, single point]

Q: For `CCn1c2ccccc2c2cc(NC(=O)Cc3ccc(S(=O)(=O)N4CCOCC4)s3)ccc21`, which Potency is on record?
A: active: 10 µM

Q: With `CN(Cc1ccccc1)C(c1cc2ccccc2o1)c1nnnn1C(C)(C)C` (stereo not given) as the molecule, how does the Potency read?
A: inconclusive [inhibitor, single point]

Q: With `CCOc1ccc(C(C(=O)Nc2ccc(F)cc2)N(C(=O)Cn2nnc3ccccc32)C2CC2)cc1` (stereo not given) as the molecule, how does the Potency read?
A: inconclusive [inhibitor, partial curve, poor fit]

Q: Which Potency does the source give for `O=C(Nc1ccc(Cl)cn1)c1ccccc1SCc1ccccc1` here?
A: inconclusive [inhibitor, single point]

Q: How did the Potency turn out when `Cc1ccc(CC2(C)C(=O)Nc3c(Cl)ccc(Cl)c32)cc1` (stereo not given) was run?
A: inconclusive [inhibitor, single point]

Q: For `CCOc1ccc(CN(C)C(=O)CN2C(=O)NC(c3ccccc3)(c3ccccc3)C2=O)cc1`, which Potency is on record?
A: inconclusive [inhibitor, partial curve, poor fit]

Q: With `C=CCOC(=O)C(=O)/C=C/c1ccc2c(c1)Cc1ccccc1-2` as the molecule, how does the Potency read?
A: inactive

Q: Which Potency does the source give for `O=C1C(C=NCCN2CCOCC2)=C(O)c2ccccc21` here?
A: inactive

Q: How did the Potency turn out when `O=C(CCc1ccccc1)Nc1cc2c(cc1Cl)OCCO2` was run?
A: inconclusive [inhibitor, single point]

Q: For `COc1ccccc1C(=O)COC(=O)c1cccs1`, which Potency is on record?
A: inconclusive [inhibitor, single point]

Q: `c1ccc(CSc2nnc(-c3sccc3-n3cccc3)o2)cc1` was tested. Which Potency did it give?
A: inconclusive [inhibitor, single point]

Q: Which Potency does the source give for `COc1ccc(OC)c(Nc2cc(-c3ccccc3)nc(N)n2)c1` here?
A: inconclusive [inhibitor, partial curve, poor fit]

Q: With `CCOc1ccc(-c2c(C(=O)N/N=C/c3ccc(Cl)cc3)nnn2-c2nonc2N)cc1` as the molecule, how does the Potency read?
A: inconclusive [inhibitor, partial curve, poor fit]

Q: Which Potency does the source give for `O=C1Cc2ccccc2N1c1c(Cl)cccc1Cl` here?
A: inconclusive [inhibitor, single point]

Q: With `O=c1c2ccccc2c(-c2ccccc2)nn1-c1ccc(Cl)c(Cl)c1` as the molecule, how does the Potency read?
A: inconclusive [inhibitor, partial curve, poor fit]

Q: With `Cc1cccc(-c2nc3ccccc3n2Cc2ccccc2)c1` as the molecule, how does the Potency read?
A: inconclusive [inhibitor, partial curve, poor fit]

Q: For `O=C(Nc1ccccc1N1CCCC1)c1cccc(F)c1`, which Potency is on record?
A: inconclusive [inhibitor, partial curve, poor fit]

Q: With `CCN(CC)S(=O)(=O)c1ccc(N2CCN(C)CC2)c(NC(=O)Nc2ccc(C)cc2)c1` as the molecule, how does the Potency read?
A: inconclusive [inhibitor, full curve]

Q: `CCOC(=O)c1c(C)[nH]c(CCC(=O)Nc2c(C)cccc2CC)c1C` was tested. Which Potency did it give?
A: inactive

Q: With `O=C(CSc1ncnc2scc(-c3ccc(Cl)cc3)c12)NCc1ccc2c(c1)OCO2` as the molecule, how does the Potency read?
A: inconclusive [inhibitor, full curve]

Q: How did the Potency turn out when `CCOC(=O)N1CCc2c(sc(NCc3cccc(F)c3)c2C(=O)Nc2ccc(OC)cc2OC)C1` was run?
A: inactive

Q: `COc1ccccc1CNc1nc(NCc2ccc(NC(C)=O)cc2)c2sccc2n1` was tested. Which Potency did it give?
A: inconclusive [inhibitor, single point]

Q: With `Cc1ccccc1CC1(CO)CCCN(C(=O)c2cccc(Cl)c2)C1` (stereo not given) as the molecule, how does the Potency read?
A: inconclusive [inhibitor, single point]

Q: For `CCC(=O)Nc1ccccc1-c1nc2ccccc2n(CC(=O)c2ccc(Cl)cc2)c1=O`, which Potency is on record?
A: inactive

Q: `O=C(NC(=S)N1CCN(c2ccccn2)CC1)c1ccco1` was tested. Which Potency did it give?
A: inactive

Q: With `O=C(CC(c1ccccc1)c1ccccc1O)NCc1ccco1` (stereo not given) as the molecule, how does the Potency read?
A: inconclusive [inhibitor, single point]

Q: For `CCCCNc1nc(-c2ccccc2)c(C(=O)OCC)cc1C#N`, which Potency is on record?
A: inconclusive [inhibitor, full curve, poor fit]

Q: `CC(C)OCc1ccc(C(=O)N2CCN(S(=O)(=O)c3ccc(Br)s3)CC2)cc1` was tested. Which Potency did it give?
A: inconclusive [inhibitor, single point]

Q: For `COc1ccc(CNC(=S)NC2CCCCC2)cc1`, which Potency is on record?
A: inactive

Q: Which Potency does the source give for `O=C(C1CCC1)N1CCCc2cc(S(=O)(=O)N3CCN(c4ccccc4)CC3)ccc21` here?
A: inconclusive [inhibitor, single point]

Q: How did the Potency turn out when `Cc1ccc(NC2=NCC(=O)N2CCc2ccccc2)cc1C` was run?
A: inconclusive [inhibitor, partial curve, poor fit]

Q: `CCN(CC)c1ccc2cc(C=O)c(=O)oc2c1` was tested. Which Potency did it give?
A: inactive

Q: For `COc1ccccc1S(=O)(=O)Cc1ccc(C(=O)NC2CCCCCC2)o1`, which Potency is on record?
A: inactive

Q: How did the Potency turn out when `CCc1nnc(NC(=O)c2ccc(S(=O)(=O)N(CC(C)C)CC(C)C)cc2)o1` was run?
A: inconclusive [inhibitor, partial curve, poor fit]

Q: `COc1ccc(C(=O)C2CCCN(Cc3cccn3-c3ccc(Cl)cn3)C2)c(OC)c1` (stereo not given) was tested. Which Potency did it give?
A: inconclusive [inhibitor, partial curve, poor fit]

Q: For `CCc1nnc(NC(=O)[C@@H](NC(=O)c2ccc(C(C)(C)C)cc2)C(C)C)s1`, which Potency is on record?
A: inconclusive [inhibitor, partial curve, poor fit]

Q: Which Potency does the source give for `O=C(Nc1nnc(C(F)(F)F)s1)c1ccc(Br)s1` here?
A: inactive

Q: `COc1ccc(OC)c(-c2cc(C(=O)Nc3c(C)nn(Cc4ccccc4Cl)c3C)no2)c1` was tested. Which Potency did it give?
A: inconclusive [inhibitor, single point]

Q: `O=C(COC(=O)CCS(=O)(=O)c1ccccc1)NNC(=O)c1ccc([N+](=O)[O-])cc1` was tested. Which Potency did it give?
A: inactive

Q: Which Potency does the source give for `CCOC(=O)c1c(C)oc2c(F)c(F)c(F)c(F)c2c1=O` here?
A: inconclusive [inhibitor, single point]

Q: For `COc1ccccc1N1CCN(CC(O)COc2ccc(C)cc2C)CC1` (stereo not given), which Potency is on record?
A: inconclusive [inhibitor, partial curve, poor fit]

Q: With `O=[N+]([O-])c1ccc(N2CCOCC2)cc1NC(c1ccccc1)c1ccccc1` as the molecule, how does the Potency read?
A: inactive

Q: `O=C(Nc1ccc(S(=O)(=O)Nc2ccc(F)cc2)cc1)c1ccc(CN2CCOCC2)cc1` was tested. Which Potency did it give?
A: inconclusive [inhibitor, partial curve, poor fit]

Q: How did the Potency turn out when `CCc1ccccc1OCC(=O)Nc1cccc(S(=O)(=O)NC2=NCCCCC2)c1` was run?
A: inconclusive [inhibitor, single point]

Q: `COc1ccc(-c2noc(CCC(=O)NCC3CCN(Cc4cccc(C)c4)CC3)n2)cc1` was tested. Which Potency did it give?
A: active: 11.2 µM
